# Test results taken from publication PMC9911399, “Two distinct binding modes provide the RNA-binding protein RbFox with extraordinary sequence specificity”.
# Residue numbers refer to the chain shown, from its start. Some of the results follow.
# T1: RBFOX1 RRM (Homo sapiens, UniProt Q9NWB1 109-208)
# T1 sequence: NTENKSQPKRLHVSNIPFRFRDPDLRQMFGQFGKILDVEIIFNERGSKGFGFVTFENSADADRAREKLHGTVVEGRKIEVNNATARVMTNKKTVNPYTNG
# B1: CUAAGAC (DNA:RNA)
# RNA: GGGAGACCGGAAUUCAGAUUGUCCCUAAGACUUAAAUCCCGUCGUAGCCACCA
# DNA 1: CAATCTGAATTCCGGTCTCCC
# DNA 2: TGGTGGCTACGACGGGATT
# B2: GGGUUCU (DNA:RNA)
# RNA: GGGAGACCGGAAUUCAGAUUGUCCGGGUUCUUUAAAUCCCGUCGUAGCCACCA
# DNA 1: CAATCTGAATTCCGGTCTCCC
# DNA 2: TGGTGGCTACGACGGGATT
# B3: UGACCCU (DNA:RNA)
# RNA: B2 RNA with G25U, G27A, U28C, U29C
# DNA 1: CAATCTGAATTCCGGTCTCCC
# DNA 2: TGGTGGCTACGACGGGATT
# B4: CCCGGAG (DNA:RNA)
# RNA: B1 RNA with U26C, A27C, A28G, C31G
# DNA 1: CAATCTGAATTCCGGTCTCCC
# DNA 2: TGGTGGCTACGACGGGATT
# B5: GCAGUCG (DNA:RNA)
# RNA: B2 RNA with G26C, G27A, U28G, U31G
# DNA 1: CAATCTGAATTCCGGTCTCCC
# DNA 2: TGGTGGCTACGACGGGATT
# B6: UGAAUCA (DNA:RNA)
# RNA: B2 RNA with G25U, G27A, U28A, U31A
# DNA 1: CAATCTGAATTCCGGTCTCCC
# DNA 2: TGGTGGCTACGACGGGATT
# B7: ACAGAAA (DNA:RNA)
# RNA: B1 RNA with C25A, U26C, A28G, G29A, C31A
# DNA 1: CAATCTGAATTCCGGTCTCCC
# DNA 2: TGGTGGCTACGACGGGATT
# B8: UAACUGU (DNA:RNA)
# RNA: B2 RNA with G25U, G26A, G27A, U28C, C30G
# DNA 1: CAATCTGAATTCCGGTCTCCC
# DNA 2: TGGTGGCTACGACGGGATT
# B9: GACCAUC (DNA:RNA)
# RNA: B1 RNA with C25G, U26A, A27C, A28C, G29A, A30U
# DNA 1: CAATCTGAATTCCGGTCTCCC
# DNA 2: TGGTGGCTACGACGGGATT
# B10: AGGGUGA (DNA:RNA)
# RNA: B2 RNA with G25A, U28G, C30G, U31A
# DNA 1: CAATCTGAATTCCGGTCTCCC
# DNA 2: TGGTGGCTACGACGGGATT
# B11: UUAAUGA (DNA:RNA)
# RNA: B1 RNA with C25U, G29U, A30G, C31A
# DNA 1: CAATCTGAATTCCGGTCTCCC
# DNA 2: TGGTGGCTACGACGGGATT
# B12: AUUCUCU (DNA:RNA)
# RNA: B2 RNA with G25A, G26U, G27U, U28C
# DNA 1: CAATCTGAATTCCGGTCTCCC
# DNA 2: TGGTGGCTACGACGGGATT
# B13: GAAAAUC (DNA:RNA)
# RNA: B1 RNA with C25G, U26A, G29A, A30U
# DNA 1: CAATCTGAATTCCGGTCTCCC
# DNA 2: TGGTGGCTACGACGGGATT
# B14: GAUUAUU (DNA:RNA)
# RNA: B2 RNA with G26A, G27U, U29A, C30U
# DNA 1: CAATCTGAATTCCGGTCTCCC
# DNA 2: TGGTGGCTACGACGGGATT
# B15: GACAUUC (DNA:RNA)
# RNA: B1 RNA with C25G, U26A, A27C, G29U, A30U
# DNA 1: CAATCTGAATTCCGGTCTCCC
# DNA 2: TGGTGGCTACGACGGGATT
# B16: GAGAGAU (DNA:RNA)
# RNA: B1 RNA with C25G, U26A, A27G, C31U
# DNA 1: CAATCTGAATTCCGGTCTCCC
# DNA 2: TGGTGGCTACGACGGGATT
# B17: GGGAUUG (DNA:RNA)
# RNA: B2 RNA with U28A, C30U, U31G
# DNA 1: CAATCTGAATTCCGGTCTCCC
# DNA 2: TGGTGGCTACGACGGGATT
# B18: CGACUGU (DNA:RNA)
# RNA: B2 RNA with G25C, G27A, U28C, C30G
# DNA 1: CAATCTGAATTCCGGTCTCCC
# DNA 2: TGGTGGCTACGACGGGATT
# B19: GGCCAAG (DNA:RNA)
# RNA: B2 RNA with G27C, U28C, U29A, C30A, U31G
# DNA 1: CAATCTGAATTCCGGTCTCCC
# DNA 2: TGGTGGCTACGACGGGATT
# B20: CUAUGUU (DNA:RNA)
# RNA: B1 RNA with A28U, A30U, C31U
# DNA 1: CAATCTGAATTCCGGTCTCCC
# DNA 2: TGGTGGCTACGACGGGATT
# Target: T1, RBFOX1 RRM
# Test: EMSA; HiTS-Eq, 1 nM pool, 10 min; buffer printed only for the single-RNA assays: 10 mM Tris pH 7.5, 150 mM NaCl, 3.4 mM EDTA, 0.001% NP-40, 30 C
# Details: tags: His6 N-terminal (pET28a); label: 5' 32P
# In short: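 Relative association constants, normalised to the cognate motif, were derived by comparing read counts of each RNA species with those of the control reaction. The RNA sequenced was the free fraction, separated by 8% native PAGE after a 10 min equilibration in 50 µL of 1 nM 5′-radiolabelled RNA (7 randomized nucleotides) with increasing concentrations of purified wild-type or mutant RbFox RRM.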
row,Binder,binding signal
1,B1,0.00639 KA relative to UGCAUGU
2,B2,0.0166 KA relative to UGCAUGU
3,B3,0.00315 KA relative to UGCAUGU
4,B4,0.00493 KA relative to UGCAUGU
5,B5,0.0138 KA relative to UGCAUGU
6,B6,0.0114 KA relative to UGCAUGU
7,B7,0.000293 KA relative to UGCAUGU
8,B8,0.0136 KA relative to UGCAUGU
9,B9,0.00408 KA relative to UGCAUGU
10,B10,0.0166 KA relative to UGCAUGU
11,B11,0.00982 KA relative to UGCAUGU
12,B12,0.00662 KA relative to UGCAUGU
13,B13,0.00432 KA relative to UGCAUGU
14,B14,0.00707 KA relative to UGCAUGU
15,B15,0.00535 KA relative to UGCAUGU
16,B16,0.0118 KA relative to UGCAUGU
17,B17,0.0593 KA relative to UGCAUGU
18,B18,0.0174 KA relative to UGCAUGU
19,B19,0.00894 KA relative to UGCAUGU
20,B20,0.0104 KA relative to UGCAUGU
